The campaign covered roughly 370,000 compounds. About 150 (0.041%) were called active. Inconclusive results, whose numbers are uncertain, are shown with a selection of clear calls. Calls come from the whole dose curve; as a rule, active = well fitted inhibition curve with a large enough effect; inconclusive = small, poorly fitted or top-dose-only effect; inactive = flat fitted curve, though single readings scatter. No potency is given beside an inconclusive call; the fits are too rough.
These compounds were tested against Beta-lactamase (Escherichia coli (strain K12)) (UniProt P00811) (assay: qHTS Inhibitors of AmpC Beta-Lactamase (assay with detergent)). Details: AmpC hydrolysis of nitrocefin, absorbance 480 nm, 0.01% Triton; activity change, negative = inhibition: at 114 µM (top of the series).
UniProt P00811, sequence (P00811 whole entry, looked up): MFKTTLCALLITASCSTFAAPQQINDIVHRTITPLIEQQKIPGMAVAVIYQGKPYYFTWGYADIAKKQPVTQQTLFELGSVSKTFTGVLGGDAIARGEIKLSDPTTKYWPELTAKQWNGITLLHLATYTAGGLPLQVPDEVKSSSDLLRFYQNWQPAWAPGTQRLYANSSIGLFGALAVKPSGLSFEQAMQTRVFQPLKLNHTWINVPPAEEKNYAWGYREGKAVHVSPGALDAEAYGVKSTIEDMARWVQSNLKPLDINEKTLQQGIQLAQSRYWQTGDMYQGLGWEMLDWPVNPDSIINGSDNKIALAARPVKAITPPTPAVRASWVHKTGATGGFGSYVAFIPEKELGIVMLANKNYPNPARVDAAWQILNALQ
Method in brief: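 AmpC (5.3 nM in the dispensed reagent) in 20 mM phosphate pH 7.0 with 0.01% (detergent screen) or 0.0001% Triton X-100 was preincubated with compounds for 15 min at room temperature. Nitrocefin was then added from an 800 uM solution, and hydrolysis was followed at 480 nm.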
Note: nearly all actives have a fitted effect of over 25% in size.
Potency is the fitted concentration of half-maximal effect; tags give direction and shape of the fitted curve.
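Throughout, for activity change, negative = inhibition: 0% = no-compound wells and -100% = no-enzyme wells.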

Question: For `CC1(C)C2(C#N)C(N)=NC3(OCCO3)C12C#N` (centres undefined), which Potency is on record?
Answer: The Potency was inconclusive [inhibitor, partial curve, poor fit].

Question: With `O=C(N[C@@H](Cc1ccccc1)C(=O)N1CCN(S(=O)(=O)c2ccc(F)cc2)CC1)c1ccco1` as the compound, how does the Potency read?
Answer: The Potency was inconclusive [inhibitor, full curve, poor fit].

Question: With `Cc1ccc(Cn2c(C)c3cnn(CC(=O)NCCc4ccc(Cl)cc4)c(=O)c3c2C)cc1` as the compound, how does the “activity change, negative = inhibition” value read?
Answer: The value was inactive: -3.48%.

Question: With `O=S1(=O)C=CC(Nc2ccccc2)C1` (centres undefined) as the compound, how does the Potency read?
Answer: Its Potency is inconclusive [inhibitor, single point].

Question: Which “activity change, negative = inhibition” value does the source give for `COc1cc(C(=O)NCCSc2ccc(Cl)cc2)cc(OC)c1OC` here?
Answer: Its value is inactive: -6.31%.

Question: For `O=C(Nc1nc(-c2nc3ccccc3s2)cs1)c1ccco1`, which “activity change, negative = inhibition” value is on record?
Answer: Its value is inactive: -6.98%.

Question: Which “activity change, negative = inhibition” value does the source give for `CCc1ccc(OC(=O)/C=C/c2ccco2)cc1` here?
Answer: The value was inactive: -15.3%.

Question: `O=C(Cn1nc(C(F)(F)F)c2c1CCCC2)NCc1ccco1` was tested. Which Potency did it give?
Answer: The Potency was inconclusive [inhibitor, partial curve].

Question: `CN(C)S(=O)(=O)c1ccc(N2CCCC2)c(C(=O)NNC(=O)COc2ccccc2F)c1` was tested. Which Potency did it give?
Answer: The Potency was inconclusive [inhibitor, partial curve, poor fit].

Question: How did the “activity change, negative = inhibition” value turn out when `CCOCCCNC(=O)c1ccc2nc(-c3ccc(OC)c(OC)c3)c(-c3ccc(OC)c(OC)c3)nc2c1` was run?
Answer: The value was inactive: -3.83%.

Question: With `O=C(c1ccc(COc2ccc(F)cc2)o1)n1cc(Br)cn1` as the compound, how does the Potency read?
Answer: Its Potency is inconclusive [inhibitor, partial curve, poor fit].

Question: `O=C(OCn1ncc(Cl)c(Cl)c1=O)c1cccc(C(F)(F)F)c1` was tested. Which “activity change, negative = inhibition” value did it give?
Answer: The value was inactive: -4.75%.

Question: For `Cc1ccc(C(=O)c2ccccc2C(=O)OCC(=O)NCCc2ccccc2)cc1`, which Potency is on record?
Answer: Its Potency is inconclusive [inhibitor, full curve].

Question: For `COc1ccc(C(C)(C)C)cc1NC(=O)CSc1ncn[nH]1`, which Potency is on record?
Answer: Its Potency is inconclusive [inhibitor, full curve, poor fit].

Question: With `COCCN(C(=O)COC(=O)CCOc1ccccc1C)c1c(N)n(Cc2ccccc2)c(=O)[nH]c1=O` as the compound, how does the Potency read?
Answer: Its Potency is inconclusive [inhibitor, full curve, poor fit].

Question: How did the Potency turn out when `O=C1C2CCCN2C(c2ccc(Br)cc2)N1c1ccc(F)cc1` (centres undefined) was run?
Answer: The Potency was inconclusive [inhibitor, partial curve, poor fit].

Question: How did the Potency turn out when `N#Cc1ccc(N2Cc3ccccc3/C2=N/C(=O)Nc2ccc(Cl)cc2)cc1` was run?
Answer: The Potency was inconclusive [inhibitor, partial curve].

Question: Which Potency does the source give for `Cc1ccc(S(=O)(=O)CCC(=O)OCC(=O)Nc2cc(S(=O)(=O)N3CCOCC3)ccc2C)cc1` here?
Answer: The Potency was inconclusive [inhibitor, full curve].

Question: Which “activity change, negative = inhibition” value does the source give for `CC1CCCCC1NC(=O)c1cncc(Br)c1` (centres undefined) here?
Answer: Its value is inactive: -9.34%.

Question: Which “activity change, negative = inhibition” value does the source give for `O=C(NCc1nc2ccccc2[nH]1)C1CCCCC1` here?
Answer: Its value is inactive: -10.6%.

Question: Which Potency does the source give for `C/C(=N\NC(=O)c1c[nH]c2ccccc12)c1ccc(C)s1` here?
Answer: The Potency was inconclusive [inhibitor, partial curve].

Question: `O=C(CNC(=O)c1ccc(-c2ccccc2)cc1)OCc1ccc(Cl)cc1` was tested. Which Potency did it give?
Answer: The Potency was inconclusive [inhibitor, partial curve, poor fit].

Question: `O=C(O)c1ccc2c(c1)N(Cc1ccccc1)C(=O)c1ccccc1S2=O` (centres undefined) was tested. Which Potency did it give?
Answer: The Potency was inconclusive [inhibitor, full curve, poor fit].

Question: Which Potency does the source give for `CCOc1nc(Nc2ccc(OC)c(Cl)c2)nc(N2CCN(c3ccc(OC)cc3)CC2)n1` here?
Answer: The Potency was inconclusive [inhibitor, single point].

Question: Which Potency does the source give for `COC(=O)c1ccc(COC(=O)c2ccccc2OC)cc1` here?
Answer: Its Potency is inconclusive [inhibitor, single point].

Question: How did the Potency turn out when `O=S(=O)(c1ccc2c(c1)CCCN2)N1CCCCC1` was run?
Answer: The Potency was inconclusive [inhibitor, full curve].

Question: With `CC(=O)Nc1ccc(-c2csc(NNC(=O)c3ccc(C)cc3)n2)cc1` as the compound, how does the “activity change, negative = inhibition” value read?
Answer: The value was inactive: -4.21%.

Question: Which “activity change, negative = inhibition” value does the source give for `CC(C)CC(C(=O)NCC1CCN(Cc2ccc(F)cc2)CC1)N1Cc2ccccc2C1=O` (centres undefined) here?
Answer: Its value is inactive: 0.0296%.

Question: `Cc1ccnc(SCC(=O)c2ccc([N+](=O)[O-])cc2)n1` was tested. Which Potency did it give?
Answer: The Potency was inconclusive [inhibitor, single point].

Question: `CCc1ccc(NC(=O)Cn2cc(S(=O)(=O)c3ccc(F)cc3)c(=O)c3cc(OC)ccc32)cc1` was tested. Which “activity change, negative = inhibition” value did it give?
Answer: The value was inactive: 6.7%.

Question: Which Potency does the source give for `CCOC(=O)COc1nc(N(C)C)nc(N(C)C)n1` here?
Answer: Its Potency is inconclusive [inhibitor, partial curve, poor fit].

Question: `CN(Cc1ccccc1)c1ccc(C(CC(N)=O)NC(=O)Cc2cccc3ccccc23)cc1[N+](=O)[O-]` (centres undefined) was tested. Which Potency did it give?
Answer: The Potency was inconclusive [inhibitor, partial curve, poor fit].

Question: How did the Potency turn out when `CC(=O)N1CCc2cc(S(=O)(=O)NC3CCCc4ccccc43)ccc21` (centres undefined) was run?
Answer: The Potency was inconclusive [inhibitor, partial curve, poor fit].

Question: For `CC(C)(C)NC(=O)CSc1ncnc2c1cnn2-c1ccccc1`, which “activity change, negative = inhibition” value is on record?
Answer: The value was inactive: -0.485%.

Question: For `COC(=O)c1ccc(NC(=O)c2ccc3nsnc3c2)cc1`, which “activity change, negative = inhibition” value is on record?
Answer: The value was inactive: -5.74%.

Question: Which Potency does the source give for `CSCc1c(C(=O)NC2CCCc3ccccc32)oc2ccccc12` (centres undefined) here?
Answer: Its Potency is inconclusive [inhibitor, full curve, poor fit].

Question: With `COc1cccc(Cn2c(=O)c3[nH]cnc3n(-c3ccccc3C)c2=O)c1` as the compound, how does the “activity change, negative = inhibition” value read?
Answer: Its value is inactive: -0.768%.

Question: With `O=C(CCS(=O)(=O)c1cc(Br)cc2c1N(C(=O)C1CC1)CC2)NCc1ccco1` as the compound, how does the “activity change, negative = inhibition” value read?
Answer: Its value is inactive: 8.65%.

Question: How did the Potency turn out when `C=CCOc1ccccc1CN1CCC(Oc2cc(C(=O)NC3CC3)ccc2OC)CC1` was run?
Answer: The Potency was inconclusive [inhibitor, single point].

Question: Which “activity change, negative = inhibition” value does the source give for `Cc1ccc(NC(=O)Cn2nc3c(cc2=O)CCCC3)cc1Cl` here?
Answer: Its value is inactive: 5.75%.

Question: `CC(=O)NCCCCCCNC(C)=O` was tested. Which Potency did it give?
Answer: The Potency was inconclusive [inhibitor, single point].

Question: Which Potency does the source give for `O=C1Nc2ccc(Br)cc2/C1=C/C1CC=CCC1` (centres undefined) here?
Answer: Its Potency is inconclusive [inhibitor, single point].

Question: `Clc1ccc(NCc2nc3ccccc3n2CCOc2ccccc2)cc1` was tested. Which “activity change, negative = inhibition” value did it give?
Answer: Its value is inactive: 8.84%.

Question: Which Potency does the source give for `O=[N+]([O-])c1ccc(N/N=C/c2ccccc2)c(F)c1` here?
Answer: The Potency was inconclusive [inhibitor, full curve].

Question: How did the Potency turn out when `CSc1ncc(C(=O)Nc2ccccc2)cn1` was run?
Answer: The Potency was inconclusive [inhibitor, partial curve, poor fit].

Question: Which Potency does the source give for `CCOC(=O)N1CCN(C(=O)c2ccc3c(SCC(=O)O)c4c(nc3c2)CCC4)CC1` here?
Answer: The Potency was inconclusive [inhibitor, full curve].

Question: With `c1ccc(-n2ccnc2)cc1` as the compound, how does the Potency read?
Answer: The Potency was inconclusive [inhibitor, full curve].

Question: How did the Potency turn out when `O=C(C1CCCN1S(=O)(=O)c1cccc2cccnc12)N1CCN(c2ccccc2)CC1` (centres undefined) was run?
Answer: Its Potency is inconclusive [inhibitor, full curve, poor fit].

Question: How did the Potency turn out when `O=C1/C(=C/c2ccc([N+](=O)[O-])cc2)N2CCC1CC2` was run?
Answer: Its Potency is inconclusive [inhibitor, full curve].

Question: With `CCn1c(SCC(=O)Nc2ccc3c(c2)c2ccccc2n3CC)nnc1-c1ccco1` as the compound, how does the Potency read?
Answer: Its Potency is inconclusive [inhibitor, full curve, poor fit].

Question: For `COc1ccc(CNC(C)(C)C)cc1Cl`, which Potency is on record?
Answer: The Potency was inconclusive [inhibitor, partial curve].

Question: `COc1ccccc1C(CCNS(=O)(=O)c1ccc(C)cc1)c1ccco1` (centres undefined) was tested. Which “activity change, negative = inhibition” value did it give?
Answer: Its value is inactive: -10.7%.

Question: With `CC1=C(C(=O)NCc2ccccc2)C(c2cccnc2)n2ncnc2N1` (centres undefined) as the compound, how does the Potency read?
Answer: The Potency was inconclusive [inhibitor, partial curve, poor fit].

Question: How did the Potency turn out when `Cc1ccc2cc(CN(C(=O)c3ccco3)c3ccccc3C)c(=O)[nH]c2c1` was run?
Answer: The Potency was inconclusive [inhibitor, partial curve, poor fit].

Question: With `Oc1cccc(/C=N\Nc2nncc(-c3ccccc3)n2)c1` as the compound, how does the “activity change, negative = inhibition” value read?
Answer: The value was inactive: -1.96%.

Question: With `COc1ccc(CCNC(=O)CSc2nc(C)nc3c2c(=O)n(C)c(=O)n3C)cc1OC` as the compound, how does the Potency read?
Answer: The Potency was inconclusive [inhibitor, partial curve, poor fit].

Question: How did the Potency turn out when `CSc1cccc(NC(=O)c2cc(S(=O)(=O)N3CCCCC3)c[nH]2)c1` was run?
Answer: Its Potency is inconclusive [inhibitor, full curve, poor fit].

Question: Which Potency does the source give for `COc1ccc(/C=C2\SC(=S)N(CCC(=O)Nc3cccc(C(=O)O)c3)C2=O)cc1` here?
Answer: The Potency was inconclusive [inhibitor, full curve, poor fit].

Question: How did the Potency turn out when `Cc1cc(C)n(/N=C/c2ccc(C(C)C)cc2)c(=O)c1C#N` was run?
Answer: The Potency was inconclusive [inhibitor, full curve].

Question: `CC(=O)Nc1ccc2nc(-c3cccnc3)[nH]c2c1` was tested. Which Potency did it give?
Answer: The Potency was inconclusive [inhibitor, partial curve].

Question: For `Cc1ccc(S(=O)(=O)NCCN2CCOCC2)cc1C`, which Potency is on record?
Answer: Its Potency is inconclusive [inhibitor, single point].

Question: With `CCC(Sc1nnc(-c2ccc(OC)c(OC)c2)c(-c2ccc(OC)c(OC)c2)n1)C(=O)NC1CCCC1` (centres undefined) as the compound, how does the “activity change, negative = inhibition” value read?
Answer: The value was inactive: 10.4%.

Question: For `COc1cccc(NC(=O)Cn2nc(C)c3c(C)n(-c4ccccc4)nc3c2=O)c1`, which “activity change, negative = inhibition” value is on record?
Answer: The value was inactive: -2.56%.

Question: Which Potency does the source give for `Cn1c(=O)c2c(nc(NCCc3ccccc3)n2CC(=O)NCCc2ccccc2)n(C)c1=O` here?
Answer: Its Potency is inconclusive [inhibitor, full curve, poor fit].

Question: With `CCC(=O)Nc1nnc(-c2cccs2)s1` as the compound, how does the “activity change, negative = inhibition” value read?
Answer: The value was inactive: 0.406%.

Question: For `CC(C)(C)c1ccc(/C=C2\Oc3cc(O)ccc3C2=O)cc1`, which “activity change, negative = inhibition” value is on record?
Answer: The value was inactive: 5.39%.

Question: With `O=C(CSc1nc2ccccc2[nH]1)NCCc1ccc(Cl)cc1` as the compound, how does the Potency read?
Answer: Its Potency is inconclusive [inhibitor, partial curve, poor fit].

Question: Which Potency does the source give for `CS(=O)(=O)N1CCC(C(=O)Nc2ccc(C(N)=O)cc2)CC1` here?
Answer: Its Potency is inconclusive [inhibitor, full curve].

Question: For `CCCCn1c(CNC(=O)Cc2ccccc2)nc2ccccc21`, which Potency is on record?
Answer: Its Potency is inconclusive [inhibitor, full curve, poor fit].

From PubChem BioAssay AID485294 (National Center for Advancing Translational Sciences (NCATS), 2010)
